From PubChem BioAssay AID1508624 (National Center for Advancing Translational Sciences (NCATS), 2021)
In all, about 48,000 compounds went through this assay and about 120 (0.25%) were called active. Not shown: some 4% with an inconclusive outcome. Calls come from the whole dose curve; as a rule, active = well fitted activation curve with a large enough effect; inconclusive = small, poorly fitted or top-dose-only effect, or another doubt; inactive = no such curve, though single readings can be large or run the other way. The list shows a part of the results.

assay: Primary qHTS for Identification of Small Molecule Activators of Huntingtin-Antisense Promoter Activity; settings: HEK293 HTT-AS promoter firefly luciferase reporter, 24 h; series mostly up to 57.5 µM; activity change, positive = activation: at the top concentration; note: nearly all actives have a fitted effect of over 55% in size
How it was run: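 HEK293 luciferase promoter-reporter cells (2,500/well) plated 24 h, then compounds added at up to 57.5 uM final for 24 h at 37 °C. Firefly luminescence by Dual-Glo, normalized to vehicle (0%) and zero RLU (-100%).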
Potency is the fitted concentration of half-maximal effect.

SMILES | activity change, positive = activation | Potency
Cc1cc(NC(=O)c2ccc(Cl)c(Cl)c2)ccc1-c1cc2ccccc2oc1=O | inactive: 13.2% | –
COc1ccc(NC(=O)Cn2c(=O)n(-c3ccccc3)c(=O)c3ccc(C(=O)NCc4ccc5c(c4)OCO5)cc32)cc1 | inactive: -11.5% | –
Oc1cccc(Nc2nc(-c3ccccc3)nc3ccccc23)c1 | inactive: -8% | –
CC1(C)C(=O)N(CC(=O)Nc2ccc(OC(F)(F)F)cc2)c2ccccc21 | inactive: -11.3% | –
CCCSc1ncc(Cl)c(C(=O)Nc2ccc(CC)cc2)n1 | inactive: -21.3% | –
Cc1ccc(CNC(=O)CSc2nc3ccsc3c(=O)n2-c2ccc(C(=O)O)cc2)cc1 | inactive: -7.95% | –
CCN(CCCNC(=O)c1cc2cc3cc(OC)ccc3nc2s1)c1ccccc1 | inactive: 6.16% | –
O=C(CSC1=Nc2ccccc2C2=NC(CCC(=O)NC3CCCCC3)C(=O)N12)Nc1cccc(Cl)c1 (stereo unspecified) | inactive: -22.7% | –
CCOC(=O)C1CCC(CN(Cc2c(Cl)cccc2Cl)S(=O)(=O)c2ccc(F)c(C)c2)CC1 (stereo unspecified) | inactive: -20.9% | –
COc1cccc(NC(=O)CCNS(=O)(=O)c2ccc3c(c2)CCCC(=O)N3)c1 | inactive: 8.54% | –
CCOC(=O)c1c(C)[nH]c(C)c1S(=O)(=O)N(C)CC(=O)Nc1cc(Cl)ccc1OC | inactive: -23.8% | –
CCOCCCNC(=O)N1CCN(S(=O)(=O)c2ccc3c(ccn3C)c2)CC1 | inactive: -7.36% | –
COc1ccc(-c2noc(-c3ccc(N4CCOCC4)c([N+](=O)[O-])c3)n2)cc1OC | inactive: -7.39% | –
COc1ccccc1N1CCN(CCC(=O)Nc2cccc(F)c2)CC1 | inactive: 0% | –
Cn1c(=O)c2c(SCC(=O)NCC3CCCO3)nc(-c3ccccc3F)nc2n(C)c1=O (stereo unspecified) | inactive: -3.97% | –
CCOC(=O)c1ccc(NS(=O)(=O)c2cc3c(cc2C)n(C)c(=O)c(=O)n3C)cc1 | inactive: -16% | –
CCOc1ccc(NC(=O)CSc2oc(-c3cccs3)nc2S(=O)(=O)c2ccc(Cl)cc2)cc1 | inactive: 3.87% | –
O=C(Cn1c(=O)n(-c2ccccc2)c(=O)c2ccc(C(=O)NCc3ccc4c(c3)OCO4)cc21)Nc1ccc(Br)cc1F | inactive: -17.6% | –
CCOc1ccc(CNC(=O)c2cnc(SC)nc2CC)cc1 | inactive: -8.64% | –
COc1ccc(CNc2nc(-c3ccc(OC)c(OC)c3)cc(C(F)(F)F)n2)cc1 | inactive: -24% | –
CCCCSCCCNC(=O)CN1C(=O)COc2ccc(S(=O)(=O)N3CCCC3)cc21 | inactive: -14% | –
O=C(c1ccc2c(c1)N(Cc1cccc(F)c1)C(=O)c1ccccc1S2)N1CCCC1 | inactive: -25% | –
CC(C)c1cnc2c(c1SCC(=O)NCc1ccccc1Cl)c(=O)n(C)c(=O)n2C | inactive: 1.75% | –
Cc1cccc2c1-c1sc(C(=O)N(C)c3cccc(Cl)c3)cc1CO2 | inactive: 9.88% | –

SMILES | activity change, positive = activation | Potency
COc1ccc(NC(=O)NC2COc3ccccc3C2)cc1Cl (stereo unspecified) | inactive: 14.9% | –
Cc1ccc(CN2C(=O)c3ccccc3CC2(C)C(=O)NC2CCCCC2)cc1 (stereo unspecified) | inactive: -11.2% | –
Cc1cccc(N2CCN(C(=O)c3noc4c3COc3ccc(C)cc3-4)CC2C)c1 (stereo unspecified) | inactive: -10.7% | –
CCOc1ccccc1C(=O)NC1(C(F)(F)F)C(=O)Nc2c1c(=O)[nH]c(=O)n2-c1ccc(F)cc1 (stereo unspecified) | inactive: 6.7% | –
CSc1ccc(CCNC(=O)CCc2c(C)nc3ncnn3c2C)cc1 | inactive: -8.35% | –
COc1ccccc1N1CCN(CCN(C(=O)C2CCCCC2)c2ccccn2)CC1 | inactive: -15.1% | –
CN1C(=O)CC(c2ccccc2)C1=O (stereo unspecified) | inactive: -4.43% | –
Cn1nnnc1SCCNCc1cc(Br)ccc1OCc1ccccc1Cl | inactive: -51.7% | –
OC[C@H]1O[C@@H](Oc2cc(O)cc(C=Cc3ccc(O)cc3)c2)[C@H](O)[C@@H](O)[C@H]1O | inactive: 4.95% | –
Cc1ccc(C(=O)Nc2cccc3cccnc23)cc1Cl | – | active: 8.91 µM
COc1cccc(OC)c1C(=O)NCCc1csc(-c2ccc(Cl)cc2)n1 | inactive: -21.7% | –
COC(=O)c1c(-c2cccs2)csc1NC(=O)COc1ccc(C)cc1 | inactive: -8.88% | –
O=C(CCn1cccn1)Nc1ccc(Br)cc1F | inactive: 15.3% | –
COc1ccc(CNC(=O)c2ccc3c(c2)N(Cc2c(F)cccc2Cl)C(=O)CS3)cc1 | inactive: -39.1% | –
Cc1nc2ccccc2n1CCc1nc2c3ccccc3nc(SCc3ccc(C#N)cc3)n2n1 | inactive: 6.08% | –
COc1cccc(NC(=O)CN(CCc2ccccc2)S(=O)(=O)c2ccc(Cl)cc2)c1 | inactive: -14.5% | –
Nc1ccn([C@@H]2O[C@H](CO)[C@@H](O)C2(F)F)c(=O)n1 | inactive: -21.6% | –
O=S(=O)(NCc1nc2cccnc2n1Cc1ccccc1Cl)c1ccc2c(c1)CCCC2 | inactive: -23.9% | –
CCOc1ccc(NS(=O)(=O)c2ccc3[nH]c4c(c3c2)CCCCC4)cc1 | inactive: 7.3% [at 11.5 µM, percent change from vehicle, -100% = no light] | –
O=C(COCc1cc(-c2ccc(F)cc2)on1)Nc1cc(F)ccc1F | inactive: 0% | –
CCOc1ccccc1NS(=O)(=O)c1ccc2c(c1)oc(=O)n2C | inactive: -14.4% | –
CCN(CC)CCCNC(=O)Cc1csc2nc(-c3ccc(Cl)cc3)cn12 | inactive: 1.89% | –
CCc1cc2c(cc3c(=O)n(CCCC(=O)NCc4cccc(Cl)c4)ncn32)s1 | inactive: -33.7% | –
Cc1cc2c(n1-c1ccc(C(=O)NCc3ccccc3Cl)cc1)CCCC2 | inactive: 16.2% | –

SMILES | activity change, positive = activation | Potency
O=C(CCSCc1ccccc1Cl)NCc1ccc(F)cc1Cl | inactive: -7.43% | –
COc1ccccc1N1CCN(C(=O)c2c(C)oc3ncn(C)c(=O)c23)CC1 | inactive: -3.97% | –
Cc1cccc(CCNC(=O)c2cc3c(=O)n(C)c4ccccc4c3n2C)c1 | inactive: -4.97% | –
O=C(CN1C(=O)CCn2nc(-c3ccccc3)cc21)NCc1ccc(Cl)cc1 | inactive: -31.9% | –
COc1ccc(NC(=O)c2oc3ccccc3c2NC(=O)Cc2coc3c(C)c(C)ccc23)cc1 | inactive: -3.52% | –
COc1ccccc1-c1cc(C(=O)NCc2ccccc2)c2c(-c3ccc(C)cc3)[nH]nc2n1 | inactive: -37.4% | –
Fc1ccc(Cl)cc1-c1nc(Nc2ccncc2)c2nccnc2n1 | inactive: -3.57% | –
Cc1ccc(S(=O)(=O)c2nc(S(=O)(=O)c3ccccc3)sc2NCCCOC(C)C)cc1 | inactive: -1.34% | –
CCOc1ccc(NC(=O)/C(C#N)=C\c2ccc(-c3ccc(Cl)cc3)o2)cc1 | inactive: -16.7% | –
Cc1c(Cl)cccc1NC(=O)CCS(=O)(=O)c1ccc2c(c1)CC(=O)N2C | inactive: 10.8% | –
O=C(CSc1n[nH]c(-c2ccc(F)cc2)n1)NCCc1ccccc1 | inactive: -18.7% | –
CCN(CC)CCNC(=O)c1c2c(nc3ccccc13)C(=O)N(C1CCCCC1)C2 | inactive: 7.96% | –
Cc1ccc(S(=O)(=O)NCCc2cn3ccsc3n2)c(C)c1 | inactive: -10.7% | –
COc1cccc(NC(=O)Cn2cc(C(=O)c3ccc(C)cc3)c(=O)c3cc(OC)ccc32)c1 | inactive: -24.3% | –
Cc1ccccc1NC(=O)Cn1c(=O)n(Cc2ccc3c(c2)OCO3)c(=O)c2ccccc21 | inactive: -19.9% | –
CCOC(=O)c1c(Nc2ccc(OC)cc2)nnc(-c2ccccc2)c1-c1ccccc1 | inactive: -32.2% | –
CCOc1ccc(NC(=O)COc2ccc(S(=O)(=O)NC3CCCCC3)cc2)cc1 | inactive: -33.3% | –
CN1CCN(c2ncc3c(n2)CCN(Cc2ccc(Br)s2)C3)CC1 | inactive: -15.3% | –
COc1ccc(-c2csc(=Nc3ccccc3)n2CCO)cc1F | inactive: 21% | –
Cc1cccn2c(=O)c(C(=O)NCc3cccc(F)c3)cnc12 | inactive: 4.8% | –
CCOc1ccc(CNC(=O)Cc2ccc(NC(=O)N3CCSc4ncccc43)cc2)cc1 | inactive: -17.6% | –
Cc1cccc(-c2nc3scc(CCNS(=O)(=O)c4ccc5c(c4)OCCO5)n3n2)c1 | inactive: -25.3% | –
Cc1ccc(Cl)cc1Nc1nn2c(=O)c3ccc(C(=O)NCc4ccc(F)cc4)cc3nc2s1 | inactive: -9.93% | –
CCCOc1ccc(-c2nc(SCC(=O)c3ccc(Cl)cc3)n[nH]2)cc1 | inactive: 22.9% | –

SMILES | activity change, positive = activation | Potency
CC(=O)c1ccc(N2CCN(C(=O)C3CCN(S(=O)(=O)c4cn(C)cn4)CC3)CC2)cc1 | inactive: -5.62% | –
Cn1c(=O)c2sccc2n2c(CCC(=O)NCc3ccc(Cl)cc3)nnc12 | inactive: -14.9% | –
CN(C)CCN(Cc1ccccc1)c1ccccn1 | inactive: 0.42% | –
CCOC(=O)N1CCc2c(sc3c2c(=O)n(-c2ccc(Cl)cc2)c(=O)n3CC(C)C)C1 | inactive: -3.7% | –
COc1ccc(Nc2c(-c3cccc(O)c3)nc3cnccn23)cc1 | inactive: -14.5% | –
CC(=O)Nc1cccc(-n2cc3c(c2-c2ccccc2Cl)c(=O)n(C)c(=O)n3C)c1 | inactive: -7.6% | –
O=C(CCn1ccc2cc(S(=O)(=O)N3CCCC3)ccc21)NCc1ccccc1Br | inactive: -2.48% | –
O=C(CN1C(=O)c2cccnc2Oc2ccc(Cl)cc21)Nc1cccc(C(F)(F)F)c1 | inactive: -32.2% | –
CC(C)Oc1ccc(C(=O)Nc2c(C(=O)Nc3cccc(F)c3)oc3ccccc23)cc1 | inactive: -2.11% | –
CCc1nc2nc(C)cc(Nc3cccc(C)c3C)n2n1 | inactive: -25.3% | –
Cc1cccc(C2CC(=O)Nc3cc4c(cc32)OCO4)c1 (stereo unspecified) | inactive: -42% | –
CCc1ccc(NC(=O)CN2C(=O)C3(SCC(=O)N3c3ccc(F)c(F)c3)c3ccccc32)cc1 (stereo unspecified) | inactive: -47.4% | –
Cc1cc2ccccc2n1CCNC(=O)c1ccc(Br)cc1 | inactive: -12.4% | –
COc1ccc(CNC(=O)CCc2c(C)c3cc4c(C)c(C)oc4cc3oc2=O)cc1OC | inactive: -11.2% | –
CC(C)c1ccc(OCC(=O)N(Cc2cccs2)C2CCS(=O)(=O)C2)cc1 (stereo unspecified) | inactive: 0.433% | –
Cc1nnc(N2CCC(C(=O)NCCC(C)C)CC2)c2nn(-c3ccc(Cl)cc3)c(C)c12 | inactive: -6.1% | –
CCOc1cc(Cl)c(S(=O)(=O)n2ccnc2)cc1Cl | inactive: 2.97% | –
CCC(C(=O)N1CCN(c2ccccc2)CC1)n1c(C)c2cnn(-c3ccccc3)c(=O)c2c1C (stereo unspecified) | inactive: -15.9% | –
O=C(NC1CCCC1)c1ccc2c(=O)n(Cc3ccccc3)c(SCc3cccc(F)c3)nc2c1 | inactive: -11.5% | –
CCN(CC)c1ccc(NC(=O)CCCN2C(=O)C(c3ccccc3)Oc3cccnc32)c(C)c1 (stereo unspecified) | inactive: -18.1% | –
COC(=O)c1ccc(NC(=O)CN2C(=O)CC(c3ccccc3)Sc3ccccc32)cc1 (stereo unspecified) | inactive: -6.37% | –
Cc1cc(C)n(C(C)CC(=O)Nc2ccc(C)c(N(C)C)c2)n1 (stereo unspecified) | inactive: -5.74% | –
C=C(C)CSc1nc(-c2ccccc2)cc(-c2ccc(OC)cc2)c1C#N | inactive: -18.2% | –
Cc1ccc(N2CC(C(=O)Nc3ccc(N(C)C)cc3)CC2=O)cc1Cl (stereo unspecified) | inactive: -2.05% | –
